{"source": "the supplement of paper PMC3334620", "note": "Whole data set: some 33,000 sequences, median “E-score (-0.5 to 0.5)” near -0.01, cut for the highest 2% near 0.26. The list shows a part of the results."}
{"target": "Ste12 (UniProt P13574)", "test": "PBM E-score (8-mer binding enrichment) (E-score (-0.5 to 0.5)); higher = stronger / more preferred TF binding; most listed sequences are background and not binding sites", "details": "protein concentration: 200 nM; construct: GST-DNA-binding domain", "procedure": "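Universal 'all 10-mer' protein binding microarrays (Agilent AMADID 015681) probed with GST-tagged S. cerevisiae TFs (full-length or DBD) made by in vitro transcription/translation (PURExpress), about 100-200 nM. Bound TF was detected with fluorescent anti-GST. Each ungapped 8-mer (which stands for itself and its reverse complement) is scored by the PBM enrichment score (E-score), a modified Wilcoxon-Mann-Whitney statistic from -0.5 to +0.5, computed with the Universal PBM Analysis Suite. Scale: above 0.35 generally sequence-specific binding.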"}
{"sequence": "CCCGTCCG", "PBM E-score": -0.288}
{"sequence": "CCAATCCA", "PBM E-score": -0.0476}
{"sequence": "ACTCCAGC", "PBM E-score": -0.195}
{"sequence": "AAGATGCT", "PBM E-score": -0.0781}
{"sequence": "GCGACAGC", "PBM E-score": -0.0731}
{"sequence": "AAGAATGA", "PBM E-score": 0.209}
{"sequence": "TCTTCCCA", "PBM E-score": 0.0588}
{"sequence": "ACCGTCAT", "PBM E-score": -0.101}
{"sequence": "ACCACTAG", "PBM E-score": 0.106}
{"sequence": "CCTCGACG", "PBM E-score": -0.193}
{"sequence": "CGGCCCAG", "PBM E-score": -0.161}
{"sequence": "CAGGGGTA", "PBM E-score": -0.0986}
{"sequence": "CGCTAGCG", "PBM E-score": -0.212}
{"sequence": "AACCTTGT", "PBM E-score": -0.145}
{"sequence": "CAACCCGA", "PBM E-score": 0.135}
{"sequence": "ACGTGGCC", "PBM E-score": -0.312}
{"sequence": "CGTTTCGA", "PBM E-score": 0.195}
{"sequence": "AAACTACC", "PBM E-score": 0.15}
{"sequence": "ATTAATTA", "PBM E-score": 0.237}
{"sequence": "AGGAGTGA", "PBM E-score": -0.0312}
{"sequence": "AGAGGGGG", "PBM E-score": -0.315}
{"sequence": "ACGCGAAG", "PBM E-score": 0.136}
{"sequence": "AAACACGG", "PBM E-score": 0.195}
{"sequence": "ACATTGTG", "PBM E-score": -0.102}
{"sequence": "ACATGGCA", "PBM E-score": -0.0155}
{"sequence": "AAAGCTGG", "PBM E-score": -0.00491}
{"sequence": "GTGTCAAC", "PBM E-score": -0.0894}
{"sequence": "AGAATTTG", "PBM E-score": 0.0447}
{"sequence": "AACCAGGG", "PBM E-score": -0.0139}
{"sequence": "TATATCCA", "PBM E-score": 0.118}
{"sequence": "ATGCAACA", "PBM E-score": 0.104}
{"sequence": "CACAGTCG", "PBM E-score": 0.0514}
{"sequence": "GCTCCGTA", "PBM E-score": -0.146}
{"sequence": "ATATATAC", "PBM E-score": 0.271}
{"sequence": "CATTCAAA", "PBM E-score": 0.113}
{"sequence": "AGCTCCCG", "PBM E-score": -0.233}
{"sequence": "GTAGGAAA", "PBM E-score": -0.0141}
{"sequence": "TACCGATA", "PBM E-score": 0.0578}
{"sequence": "AGGGTTGG", "PBM E-score": -0.0296}
{"sequence": "CAATTTTA", "PBM E-score": 0.253}
{"sequence": "AATTGTCT", "PBM E-score": 0.101}
{"sequence": "CAACCCCG", "PBM E-score": -0.0295}
{"sequence": "CGAACTCC", "PBM E-score": -0.116}
{"sequence": "GCCTCAGA", "PBM E-score": 0.165}
{"sequence": "AACCCAGC", "PBM E-score": -0.126}
{"sequence": "GCCTATAA", "PBM E-score": 0.0897}
{"sequence": "GCGGACAC", "PBM E-score": -0.16}
{"sequence": "ACATTGAT", "PBM E-score": 0.0854}
{"sequence": "AGCCCACC", "PBM E-score": -0.0991}
{"sequence": "GGGAAAAA", "PBM E-score": 0.272}
{"sequence": "AGTTGCCC", "PBM E-score": -0.0196}
{"sequence": "AAGTCAGT", "PBM E-score": 0.0177}
{"sequence": "AGTAATGA", "PBM E-score": 0.0777}
{"sequence": "CGCGCCTC", "PBM E-score": 0.108}
{"sequence": "GCCCGACC", "PBM E-score": -0.017}
{"sequence": "AGTAGATA", "PBM E-score": 0.16}
{"sequence": "AAGGCAAG", "PBM E-score": -0.124}
{"sequence": "AGGAAGTC", "PBM E-score": -0.0505}
{"sequence": "ACAGCGCG", "PBM E-score": -0.107}
{"sequence": "ATCTGTGC", "PBM E-score": -0.107}
{"sequence": "CGAGGAGA", "PBM E-score": -0.145}
{"sequence": "AGGTAACC", "PBM E-score": -0.235}
{"sequence": "CGGATTCC", "PBM E-score": 0.0541}
{"sequence": "GCTGGAAC", "PBM E-score": -0.0795}
{"sequence": "GCACGTGC", "PBM E-score": 0.0433}
{"sequence": "ACACCAAA", "PBM E-score": 0.169}
{"sequence": "GCATTTAC", "PBM E-score": -0.0119}
{"sequence": "AATAGTTG", "PBM E-score": 0.255}
{"sequence": "CCCGATCC", "PBM E-score": 0.0845}
{"sequence": "CGTCACGC", "PBM E-score": -0.088}
{"sequence": "AAAACAAA", "PBM E-score": 0.293}
{"sequence": "AAGCACGA", "PBM E-score": 0.245}
{"sequence": "CACGCCAC", "PBM E-score": -0.0829}
{"sequence": "CAGAGGTC", "PBM E-score": -0.077}
{"sequence": "GAGGGCGA", "PBM E-score": -0.314}
{"sequence": "CTGATTCC", "PBM E-score": -0.0344}
{"sequence": "GAGAAATC", "PBM E-score": 0.143}
{"sequence": "ACGTCTCC", "PBM E-score": -0.0154}
{"sequence": "GACTCCGA", "PBM E-score": -0.07}
{"sequence": "AATGGGAG", "PBM E-score": 0.021}
{"sequence": "ACGTTGTG", "PBM E-score": -0.0465}
{"sequence": "CGGCGACA", "PBM E-score": -0.0615}
{"sequence": "TGGGTAAA", "PBM E-score": -0.00616}
{"sequence": "CCAAACGC", "PBM E-score": 0.0717}
{"sequence": "GCACAGCC", "PBM E-score": -0.0851}
{"sequence": "ACCCGATG", "PBM E-score": 0.157}
{"sequence": "TAAAAACA", "PBM E-score": 0.223}
{"sequence": "CTTCAGCA", "PBM E-score": -0.061}
{"sequence": "GTCTTGAA", "PBM E-score": 0.117}
{"sequence": "AAGACTAG", "PBM E-score": -0.278}
{"sequence": "AAGCCCGT", "PBM E-score": -0.0825}
{"sequence": "GCCGACAA", "PBM E-score": -0.106}
{"sequence": "ATCTTTGA", "PBM E-score": -0.0467}
{"sequence": "GATCATGC", "PBM E-score": -0.146}
{"sequence": "AATAGCAG", "PBM E-score": -0.0902}
{"sequence": "AATCGGTG", "PBM E-score": 0.0398}
{"sequence": "ATTCTATC", "PBM E-score": 0.0428}
{"sequence": "AGGACACC", "PBM E-score": -0.121}
{"sequence": "CTAGGGTA", "PBM E-score": -0.0216}
{"sequence": "ACCTCGAC", "PBM E-score": 0.0356}
{"sequence": "GTTCCAAA", "PBM E-score": 0.256}
{"sequence": "GGCATATA", "PBM E-score": 0.155}
{"sequence": "ACCGCTGA", "PBM E-score": 0.0493}
{"sequence": "AATAAACA", "PBM E-score": 0.284}
{"sequence": "AGGTGGGA", "PBM E-score": -0.049}
{"sequence": "CAGCTAGC", "PBM E-score": -0.0892}
{"sequence": "AGAACAAA", "PBM E-score": 0.312}
{"sequence": "CGCGCGAG", "PBM E-score": 0.00855}
{"sequence": "AATTATAT", "PBM E-score": 0.227}
{"sequence": "AAAGTGGG", "PBM E-score": 0.182}
{"sequence": "CTGACTGA", "PBM E-score": -0.193}
{"sequence": "AATGGACT", "PBM E-score": -0.155}
{"sequence": "AGTCCTGA", "PBM E-score": 0.0671}
{"sequence": "GCTCTATA", "PBM E-score": -0.139}
{"sequence": "CGATCTCC", "PBM E-score": -0.108}
{"sequence": "TTTAGAAA", "PBM E-score": 0.157}
{"sequence": "CGGTTTAC", "PBM E-score": -0.055}
{"sequence": "AAACGTTA", "PBM E-score": 0.0762}
{"sequence": "CCAAGGGC", "PBM E-score": -0.139}
{"sequence": "ACACCAGA", "PBM E-score": 0.0999}
{"sequence": "CGTAACCA", "PBM E-score": -0.0743}
{"sequence": "CCTTCCCC", "PBM E-score": 0.045}
{"sequence": "CGGAACCG", "PBM E-score": 0.0345}
{"sequence": "GATACATA", "PBM E-score": 0.18}
{"sequence": "CGCATGTC", "PBM E-score": 0.0488}
{"sequence": "GACCTGAA", "PBM E-score": 0.13}
{"sequence": "CTAATCTC", "PBM E-score": -0.00473}
{"sequence": "TCAGCTAA", "PBM E-score": -0.169}
{"sequence": "CACGAGAG", "PBM E-score": -0.0675}
{"sequence": "AATGGGAT", "PBM E-score": -0.185}
{"sequence": "AACGATAT", "PBM E-score": 0.186}
{"sequence": "CGATGCGC", "PBM E-score": -0.0237}
{"sequence": "CGTAAAAG", "PBM E-score": 0.196}
{"sequence": "CAACTCAA", "PBM E-score": 0.186}
{"sequence": "CTGAGGCA", "PBM E-score": 0.0376}
{"sequence": "GCGTCTGA", "PBM E-score": 0.0384}
{"sequence": "AAAATCGA", "PBM E-score": 0.231}
{"sequence": "ATACTATA", "PBM E-score": 0.00329}
{"sequence": "AAAATCCG", "PBM E-score": 0.163}
{"sequence": "CGGGGACA", "PBM E-score": -0.0346}
{"sequence": "GTTAGTCA", "PBM E-score": 0.0319}
{"sequence": "CACGCAAG", "PBM E-score": 0.0553}
{"sequence": "ACTGCACC", "PBM E-score": 0.0378}
{"sequence": "CACTAAGC", "PBM E-score": -0.174}
{"sequence": "AGCTTGAT", "PBM E-score": -0.171}
{"sequence": "ATAGCAAG", "PBM E-score": 0.168}
{"sequence": "GCGTCAAC", "PBM E-score": -0.0194}
{"sequence": "ATGATGGG", "PBM E-score": -0.0865}
{"sequence": "AGTGCCGG", "PBM E-score": 0.0761}
{"sequence": "AACCGTGT", "PBM E-score": -0.0169}
{"sequence": "ACGAGACG", "PBM E-score": -0.0742}
{"sequence": "GTTTGCCA", "PBM E-score": 0.0814}
{"sequence": "AAACCCAT", "PBM E-score": 0.131}
{"sequence": "CTTAAGAC", "PBM E-score": -0.103}
{"sequence": "CCGCGTAA", "PBM E-score": -0.0657}
{"sequence": "ATGCGCTA", "PBM E-score": -0.0142}
{"sequence": "CGATCTTA", "PBM E-score": -0.174}
{"sequence": "ACGGTCCT", "PBM E-score": -0.222}
{"sequence": "CGAAGAGC", "PBM E-score": -0.118}
{"sequence": "TTACGGAA", "PBM E-score": 0.0606}
{"sequence": "TAGTCAAA", "PBM E-score": 0.0766}
{"sequence": "CATTGAGC", "PBM E-score": -0.204}
{"sequence": "GACCCCTA", "PBM E-score": -0.194}
{"sequence": "GATCGAGC", "PBM E-score": -0.0127}
{"sequence": "ACTGTTTC", "PBM E-score": 0.289}
{"sequence": "AGCCCGAC", "PBM E-score": -0.0725}
{"sequence": "ACCTATCT", "PBM E-score": -0.0992}
{"sequence": "CGCGGCAG", "PBM E-score": 0.22}
{"sequence": "CCCACGTC", "PBM E-score": -0.0744}
{"sequence": "GACAAAGC", "PBM E-score": -0.0185}
{"sequence": "AATGAGGG", "PBM E-score": -0.025}
{"sequence": "CTTGCACA", "PBM E-score": 0.0682}
